{"source": "PubChem BioAssay AID1745845", "about": "(National Center for Advancing Translational Sciences (NCATS), 2022)", "note": "Screen size: about 360,000 compounds; about 2,600 (0.72%) were called active. The shares of active, inactive and inconclusive entries below differ from those in the screen. The call rests on the fitted dose curve; in most records, active means well fitted inhibition curve with a large enough effect; inconclusive means small, poorly fitted or top-dose-only effect; inactive means no such curve, though single readings can be large or run the other way. Potencies beside an inconclusive call are fits to weak or partial responses and may not hold up. On the % scale 0 is the no-effect control and ±100 the full control effect; potency means the concentration at half of the fitted maximal effect; tags describe the fitted curve by direction and shape."}
{"assay": "Primary qHTS for Inhibitors of ATXN expression; further: nearly all actives have a fitted effect of over 55% in size", "details": "HEK-293 ATXN2-luciferase reporter, luminescence, 24 h; activity change, negative = inhibition: at 57 µM (top of the series)", "method_in_brief": "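ATXN2-luciferase reporter cells (luciferase flanked by upstream and downstream ATXN2 gene portions) were treated 24 h at 37 °C with compounds at up to 57 uM. SteadyGlo luminescence gave expression; GF-AFC fluorescence gave viability.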"}
{"smiles": "O=C(CN(C(=O)c1ccc(Cl)cc1)C1CCCCC1)Nc1ccc(Cl)c([N+](=O)[O-])c1", "Potency": "inconclusive: 25.1 µM [inhibitor, partial curve, poor fit]"}
{"smiles": "CCCCc1ccccc1NC(=S)NC1CCCC1", "Potency": "inconclusive: 39.8 µM [inhibitor, single point]"}
{"smiles": "CC1(c2nnnn2Cc2ccccc2)CCC(=O)N1Cc1ccco1", "note": "(stereo not drawn)", "Potency": "inactive"}
{"smiles": "COc1ccc(-n2c(NCCN(C)C)nc3sc4c(c3c2=O)CCCCC4)cc1", "Potency": "inconclusive: 2.51 µM [inhibitor, partial curve, poor fit]"}
{"smiles": "CN1CCC(C)(C(=O)Nc2cccc(Oc3ccccc3)c2)C1", "note": "(stereo not drawn)", "Potency": "inactive"}
{"smiles": "COc1ccc(C(c2nnnn2C2CCCC2)N2CCN(C/C=C/c3ccccc3)CC2)cc1", "note": "(stereo not drawn)", "Potency": "inconclusive: 39.8 µM [inhibitor, single point]"}
{"smiles": "Fc1cccc(NC(=S)NC2CCCCCCC2)c1", "Potency": "inconclusive: 39.8 µM [inhibitor, single point]"}
{"smiles": "Cc1cccc(C(=O)N2CCC(=O)N(C(COCc3ccc(Cl)cc3)Cc3ccccc3)CC2)c1", "note": "(stereo not drawn)", "Potency": "inconclusive: 22.4 µM [inhibitor, single point]"}
{"smiles": "OC(COCC(F)(F)C(F)(F)C(F)(F)C(F)F)Cn1c2ccccc2c2ccccc21", "note": "(stereo not drawn)", "Potency": "inconclusive: 14.1 µM [inhibitor, partial curve, poor fit]"}
{"smiles": "CC(C)C[C@H](NC(=O)c1cc2ccccc2s1)C(=O)N1CCN(C(=O)[C@H](CO)NS(=O)(=O)c2ccc(Cl)cc2Cl)CC1", "Potency": "inconclusive: 38.5 µM [inhibitor, single point]"}
{"smiles": "CN(C)CCCC(C)(O)C(Cc1ccccc1)c1ccccc1", "note": "(stereo not drawn)", "Potency": "inactive"}
{"smiles": "CN(C)c1ccc(C=Cc2ccnc3ccccc23)cc1N", "Potency": "inconclusive: 39.8 µM [inhibitor, single point]"}
{"smiles": "CC(C)n1c(=S)[nH]c2scc(-c3cccs3)c2c1=O", "Potency": "inconclusive: 28.2 µM [inhibitor, single point]"}
{"smiles": "O=C1C=CCC(/C=C/c2ccccc2)O1", "note": "(stereo not drawn)", "Potency": "active: 5.01 µM"}
{"smiles": "O=C1NC[C@@H](CCCCN2C[C@H](Cc3ccccc3)N(CC3CCCCC3)C(=O)C2=O)N(CCc2ccc(O)cc2)C1=O", "Potency": "inactive"}
{"smiles": "COc1ccc(C(=O)n2nc(-c3ccco3)nc2NCc2cccs2)cc1", "Potency": "inactive"}
{"smiles": "COc1ccc(-c2nc(C(=O)NCC3CCCO3)cc3c2[nH]c2ccccc23)cc1", "note": "(stereo not drawn)", "Potency": "inconclusive: 25.1 µM [inhibitor, single point]"}
{"smiles": "CC(C)Cn1c2c(c(O)c(C(=O)Nn3c(Cc4ccccc4)nc4ccccc4c3=O)c1=O)CCCC2", "Potency": "inactive"}
{"smiles": "CN(C)c1ccc(N/C=C/C(=O)c2ccccc2)cc1", "Potency": "inconclusive: 39.8 µM [inhibitor, single point]"}
{"smiles": "C/C(=N\\NC(=O)C1CCCN(S(=O)(=O)c2ccccc2)C1)c1ccccn1", "note": "(stereo not drawn)", "Potency": "active: 8.91 µM"}
{"smiles": "Cc1ccccc1-c1nc(CS(=O)(=O)CC(=O)NCc2cccc(Cl)c2)c(C)o1", "Potency": "inactive"}
{"smiles": "CCCCN1C(=O)C(=O)N(CC(=O)Nc2ccccc2C(=O)OCC)C1=O", "Potency": "inactive"}
{"smiles": "Cc1ccc(-c2noc(CSc3nnc(CCc4ccccc4)n3-c3ccccc3)n2)cc1", "Potency": "inconclusive: 14.1 µM [inhibitor, partial curve, poor fit]"}
{"smiles": "CCCCC(=O)Nc1ccc(C(=O)NNC(=S)NC(=O)c2cccs2)cc1", "Potency": "inconclusive: 21.2 µM [inhibitor, partial curve, poor fit]"}
{"smiles": "CN1C(=O)C(C)(C)c2cc(S(=O)(=O)N3CCCC(C(=O)Nc4ccc(Cl)cc4)C3)ccc21", "note": "(stereo not drawn)", "Potency": "inconclusive: 22.4 µM [inhibitor, single point]"}
{"smiles": "Cc1cccc(NC(=O)c2ccc(N3C(=O)C4C5C=CC(C6CC56)C4C3=O)cc2)c1", "note": "(stereo not drawn)", "Potency": "inconclusive: 31.6 µM [inhibitor, single point]"}
{"smiles": "O=C(CSC1=NNC(c2ccccn2)S1)Nc1ccccc1", "note": "(stereo not drawn)", "Potency": "inconclusive: 23.8 µM [inhibitor, single point]"}
{"smiles": "Cc1cc(C)c(S(=O)(=O)/N=C2/C=C(Sc3ncn[nH]3)C(=O)c3ccccc32)cc1C", "Potency": "active: 14.1 µM"}
{"smiles": "CC1=CC(C)(C)Nc2ccc(OC(=O)c3ccco3)cc21", "Potency": "active: 31.6 µM"}
{"smiles": "CCOC(=O)C1(Cc2cccc(OC)c2)CCN(Cc2cccnc2)CC1", "Potency": "inactive"}
{"smiles": "COc1cccc(COc2ccccc2C2Nc3ccc(Br)cc3C(=O)N2NC(=O)c2ccncc2)c1", "note": "(stereo not drawn)", "Potency": "inactive"}
{"smiles": "O=C(Nc1cccc(OC(F)(F)F)c1)c1ccc(Br)o1", "Potency": "inactive"}
{"smiles": "O=C(N[C@H]1c2ccccc2C[C@H]1O)[C@H]1O[C@@H](n2ccc(=O)[nH]c2=O)[C@H](O)[C@@H]1O", "Potency": "inactive"}
{"smiles": "COc1ccc(NC(=O)c2sc3nc(C)c(C(=O)Nc4ccc(Cl)cc4)c(-c4ccc(Br)cc4)c3c2N)cc1", "Potency": "inconclusive: 0.891 µM [inhibitor, full curve, poor fit]"}
{"smiles": "CC1CN(C(=O)c2ccc(Cl)c(S(=O)(=O)NCc3ccco3)c2)CC(C)O1", "note": "(stereo not drawn)", "Potency": "inactive"}
{"smiles": "COc1ccc(C(=O)/C(=C/O)N=Nc2ccc(F)cc2)cc1", "Potency": "inconclusive: 39.8 µM [inhibitor, single point]"}
{"smiles": "N#Cc1ccc(C23CC4(C2)[C@H](CN(CC2CCCCC2)[C@@H]4c2ccccc2)C3c2ccc(Cl)nc2)cc1", "note": "(stereo partly drawn)", "Potency": "inactive"}
{"smiles": "CCOc1ccc(S(=O)(=O)NCCC(=O)N2CCN(Cc3ccccc3)CC2)cc1", "Potency": "inactive"}
{"smiles": "O=C(Nc1ccc(NC(=O)c2cccs2)cc1)c1ccc2ccccc2c1", "Potency": "inconclusive: 14.1 µM [inhibitor, partial curve, poor fit]"}
{"smiles": "CN1CCN(S(=O)(=O)c2cccc(C(=O)N(C)CC(=O)Nc3ccc(Cl)c(Cl)c3)c2)CC1", "Potency": "inconclusive: 15.8 µM [inhibitor, partial curve, poor fit]"}
{"smiles": "Cc1ccccc1NC(=O)c1cccc(N2C(=O)C3C4CCC(C4)C3C2=O)c1", "note": "(stereo not drawn)", "Potency": "inactive"}
{"smiles": "Fc1ccc(CN2CCSCC2)cc1Br", "Potency": "inactive"}
{"smiles": "O=C(O)C1CC=CCC1C(=O)Nc1cccnc1", "note": "(stereo not drawn)", "activity change, negative = inhibition": "inconclusive: -41.4% [inhibitor]"}
{"smiles": "CC(=O)N1CCN(c2ccc(Oc3ccc([N+](=O)[O-])c(C(F)(F)F)c3)cc2)CC1", "activity change, negative = inhibition": "inconclusive: -50.7% [inhibitor]"}
{"smiles": "CCN(CC)Cc1c(O)ccc2occ(C(=O)c3ccc(OC)cc3)c12", "Potency": "inactive"}
{"smiles": "COC(=O)N/N=C/c1cn(CCOc2ccc(OC)cc2)c2ccccc12", "Potency": "inactive"}
{"smiles": "COc1ccc(-n2nc3c(N4CCCC(C(=O)NCCc5ccc(C)cc5)C4)nnc(C)c3c2C)cc1", "note": "(stereo not drawn)", "Potency": "inconclusive: 2 µM [inhibitor, partial curve, poor fit]"}
{"smiles": "COc1ccc([C@H]2CC(=O)C=C(c3ccc(OC(F)(F)F)cc3)C2)cc1OC", "Potency": "inconclusive: 31.6 µM [inhibitor, single point]"}
{"smiles": "Nc1ccc2c(c1)Cc1cc([N+](=O)[O-])ccc1-2", "Potency": "inactive"}
{"smiles": "Cc1ccc(S(=O)(=O)Nc2ccc3c(c2)C(=O)N([C@H](C)CO)C[C@H](C)[C@@H](CN(C)C(=O)NC2CCCCC2)OCCCC[C@@H](C)O3)cc1", "Potency": "inconclusive: 25.1 µM [inhibitor, partial curve, poor fit]"}
{"smiles": "Cc1cc(C(=O)COC(=O)c2ccc[nH]c2=O)c(C)n1C1CC1", "Potency": "inactive"}
{"smiles": "C[C@H]1NC(=O)[C@@]2(C)[C@@H](c3ccccc3)[C@H]3COc4ccccc4[C@@H]3N2C1=O", "Potency": "inactive"}
{"smiles": "O=C(c1cc(-c2ccccc2Cl)nc2ccc(Br)cc12)N1CCN(c2ccccn2)CC1", "Potency": "inconclusive: 31.6 µM [inhibitor, single point]"}
{"smiles": "O=c1c2ccccc2sn1-c1ccccc1", "Potency": "inconclusive: 31.6 µM [inhibitor, single point]"}
{"smiles": "Oc1cccc(/C=N/n2c(C3CCCCC3)n[nH]c2=S)c1", "Potency": "inactive"}
{"smiles": "COc1ccc(S(=O)(=O)NCc2ccncc2)cc1NC(=O)c1ccc(Cl)cc1", "Potency": "inconclusive: 0.891 µM [inhibitor, single point]"}
{"smiles": "Nc1nc(Nc2ccc(S(N)(=O)=O)cc2)nn1C(=O)c1c(F)cccc1F", "Potency": "active: 12.2 µM"}
{"smiles": "Nc1c(C(=O)NCCN2CCOCC2)c2nc3ccccc3nc2n1CCc1ccccc1", "Potency": "inconclusive: 8.91 µM [inhibitor, partial curve, poor fit]"}
{"smiles": "COc1ccc(NC(=O)CC2C(=O)N(c3ccc(OC)cc3)C(=S)N2NC(=O)c2cccc(F)c2)cc1", "note": "(stereo not drawn)", "Potency": "inactive"}
{"smiles": "COC(=O)c1ccc(/C=C(\\C#N)C(=O)NC(C)c2ccccc2)cc1", "note": "(stereo not drawn)", "Potency": "inconclusive: 25.1 µM [inhibitor, single point]"}
{"smiles": "CCOc1ccc(Cl)cc1-c1cc(C(=O)Nc2cc(OC)c(OC)c(OC)c2)[nH]n1", "Potency": "inconclusive: 17.8 µM [inhibitor, partial curve, poor fit]"}
{"smiles": "CCOc1ccc(NC(=S)N(CCc2c(C)[nH]c3ccc(C)cc23)Cc2ccco2)cc1", "Potency": "inconclusive: 28.2 µM [inhibitor, single point]"}
{"smiles": "CN(C)S(=O)(=O)c1cccc(NC(=O)CCc2nc3sc4c(c3c(=O)[nH]2)CCCC4)c1", "Potency": "inconclusive: 6.31 µM [inhibitor, partial curve, poor fit]"}
{"smiles": "COCCCNC(=O)c1sc2nc(C)c(C(=O)Nc3ccc(C)cc3C)c(-c3ccc(Cl)cc3)c2c1N", "Potency": "inconclusive: 3.98 µM [inhibitor, partial curve, poor fit]"}
{"smiles": "Clc1ccc2c(N/N=C/c3cccnc3)ccnc2c1", "Potency": "inconclusive: 17.8 µM [inhibitor, partial curve]"}
{"smiles": "COc1cccc(CNC(=O)c2ccc(C)c(S(=O)(=O)N3CCCCC3)c2)c1", "Potency": "inactive"}
{"smiles": "CCOc1cc(C(=O)N(CC)CC(=O)Nc2ccc3c(c2)OCCO3)ccc1OC", "Potency": "inactive"}
{"smiles": "COc1ccc(NC(=O)c2ccc(-c3csc(C)n3)cc2)cc1", "Potency": "inconclusive: 31.6 µM [inhibitor, partial curve, poor fit]"}
